From the supplement of paper PMC8728848
The other results are listed elsewhere or left out.

What was measured:
Assay in all cases: glycan array binding signal (z-score within array); higher = stronger binding
Conditions in all cases: glycan notation: IUPAC condensed, linker removed
[1] = biological target: Gal(b1-4)GlcNAc(b1-3)Gal(b1-4)GlcNAc(b1-2)Man(a1-3)[Gal(b1-4)GlcNAc(b1-3)Gal(b1-4)GlcNAc(b1-2)Man(a1-6)]Man(b1-4)GlcNAc(b1-4)[Fuc(a1-6)]GlcNAc
In short: (§1)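 Glycan array data were curated from 3228 arrays in the Consortium for Functional Glycomics database and kept only where the protein sequence was available. Glycan names were converted to IUPAC-condensed notation, and columns mapping to the same glycan were averaged. The binding signal is a within-array Z-score, averaged across arrays of the same protein sequence at different concentrations or buffers and across linkers. Negative Z-scores can be read as non-binding.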

[2] = biological target: Gal(b1-4)GlcNAc(b1-3)Gal(b1-4)GlcNAc(b1-2)[Gal(b1-4)GlcNAc(b1-3)Gal(b1-4)GlcNAc(b1-6)]Man(a1-6)[Gal(b1-4)GlcNAc(b1-3)Gal(b1-4)GlcNAc(b1-2)Man(a1-3)]Man(b1-4)GlcNAc(b1-4)GlcNAc
In short: as §1

[3] = biological target: Gal(b1-4)GlcNAc(b1-3)Gal(b1-4)GlcNAc(b1-2)[Gal(b1-4)GlcNAc(b1-3)Gal(b1-4)GlcNAc(b1-6)]Man(a1-6)[Gal(b1-4)GlcNAc(b1-3)Gal(b1-4)GlcNAc(b1-2)Man(a1-3)]Man(b1-4)GlcNAc(b1-4)[Fuc(a1-6)]GlcNAc
In short: as §1

[4] = biological target: Gal(b1-4)GlcNAc(b1-3)Gal(b1-4)GlcNAc(b1-3)Gal(b1-4)GlcNAc
In short: as §1

[5] = biological target: Gal(b1-4)GlcNAc(b1-3)Gal(b1-4)GlcNAc(b1-3)Gal(b1-4)GlcNAc(b1-2)Man(a1-3)[Gal(b1-4)GlcNAc(b1-3)Gal(b1-4)GlcNAc(b1-3)Gal(b1-4)GlcNAc(b1-2)Man(a1-6)]Man(b1-4)GlcNAc(b1-4)GlcNAc
In short: as §1

[6] = biological target: Gal(b1-4)GlcNAc(b1-3)Gal(b1-4)GlcNAc(b1-3)Gal(b1-4)GlcNAc(b1-2)Man(a1-3)[Gal(b1-4)GlcNAc(b1-3)Gal(b1-4)GlcNAc(b1-3)Gal(b1-4)GlcNAc(b1-2)Man(a1-6)]Man(b1-4)GlcNAc(b1-4)[Fuc(a1-6)]GlcNAc
In short: as §1

[7] = biological target: Gal(b1-4)GlcNAc(b1-3)Gal(b1-4)GlcNAc(b1-3)Gal(b1-4)GlcNAc(b1-2)[Gal(b1-4)GlcNAc(b1-3)Gal(b1-4)GlcNAc(b1-3)Gal(b1-4)GlcNAc(b1-6)]Man(a1-6)[Gal(b1-4)GlcNAc(b1-3)Gal(b1-4)GlcNAc(b1-3)Gal(b1-4)GlcNAc(b1-2)Man(a1-3)]Man(b1-4)GlcNAc(b1-4)[Fuc(a1-6)]GlcNAc
In short: as §1

[8] = biological target: Gal(b1-4)GlcNAc(b1-3)Gal(b1-4)GlcNAc(b1-3)Gal(b1-4)GlcNAc(b1-3)Gal(b1-4)GlcNAc(b1-2)Man(a1-3)[Gal(b1-4)GlcNAc(b1-3)Gal(b1-4)GlcNAc(b1-3)Gal(b1-4)GlcNAc(b1-3)Gal(b1-4)GlcNAc(b1-2)Man(a1-6)]Man(b1-4)GlcNAc(b1-4)GlcNAc
In short: as §1

[9] = biological target: Gal(b1-4)GlcNAc(b1-3)Gal(b1-4)GlcNAc(b1-3)Gal(b1-4)GlcNAc(b1-3)Gal(b1-4)GlcNAc(b1-2)Man(a1-3)[Gal(b1-4)GlcNAc(b1-3)Gal(b1-4)GlcNAc(b1-3)Gal(b1-4)GlcNAc(b1-3)Gal(b1-4)GlcNAc(b1-2)Man(a1-6)]Man(b1-4)GlcNAc(b1-4)[Fuc(a1-6)]GlcNAc
In short: as §1

[10] = biological target: Gal(b1-4)GlcNAc(b1-3)Gal(b1-4)GlcNAc(b1-3)Gal(b1-4)GlcNAc(b1-3)Gal(b1-4)GlcNAc(b1-2)[Gal(b1-4)GlcNAc(b1-3)Gal(b1-4)GlcNAc(b1-3)Gal(b1-4)GlcNAc(b1-3)Gal(b1-4)GlcNAc(b1-6)]Man(a1-6)[Gal(b1-4)GlcNAc(b1-3)Gal(b1-4)GlcNAc(b1-3)Gal(b1-4)GlcNAc(b1-3)Gal(b1-4)GlcNAc(b1-2)Man(a1-3)]Man(b1-4)GlcNAc(b1-4)[Fuc(a1-6)]GlcNAc
In short: as §1

[11] = biological target: Gal(b1-4)GlcNAc(b1-3)Gal(b1-4)GlcNAc(b1-3)Gal(b1-4)GlcNAc(b1-3)Gal(b1-4)GlcNAc(b1-3)Gal(b1-4)GlcNAc(b1-2)Man(a1-3)[Gal(b1-4)GlcNAc(b1-3)Gal(b1-4)GlcNAc(b1-3)Gal(b1-4)GlcNAc(b1-3)Gal(b1-4)GlcNAc(b1-3)Gal(b1-4)GlcNAc(b1-2)Man(a1-6)]Man(b1-4)GlcNAc(b1-4)GlcNAc
In short: as §1

[12] = biological target: Gal(b1-4)GlcNAc(b1-3)Gal(b1-4)GlcNAc(b1-3)Gal(b1-4)GlcNAc(b1-3)Gal(b1-4)GlcNAc(b1-3)Gal(b1-4)GlcNAc(b1-2)Man(a1-3)[Gal(b1-4)GlcNAc(b1-3)Gal(b1-4)GlcNAc(b1-3)Gal(b1-4)GlcNAc(b1-3)Gal(b1-4)GlcNAc(b1-3)Gal(b1-4)GlcNAc(b1-2)Man(a1-6)]Man(b1-4)GlcNAc(b1-4)[Fuc(a1-6)]GlcNAc
In short: as §1

[13] = biological target: Gal(b1-4)GlcNAc(b1-3)Gal(b1-4)GlcNAc(b1-3)Gal(b1-4)GlcNAc(b1-3)Gal(b1-4)GlcNAc(b1-3)Gal(b1-4)GlcNAc(b1-2)[Gal(b1-4)GlcNAc(b1-3)Gal(b1-4)GlcNAc(b1-3)Gal(b1-4)GlcNAc(b1-3)Gal(b1-4)GlcNAc(b1-3)Gal(b1-4)GlcNAc(b1-6)]Man(a1-6)[Gal(b1-4)GlcNAc(b1-3)Gal(b1-4)GlcNAc(b1-3)Gal(b1-4)GlcNAc(b1-3)Gal(b1-4)GlcNAc(b1-3)Gal(b1-4)GlcNAc(b1-2)Man(a1-3)]Man(b1-4)GlcNAc(b1-4)[Fuc(a1-6)]GlcNAc
In short: as §1

[14] = biological target: Gal(b1-4)GlcNAc(b1-3)Gal(b1-4)GlcNAc(b1-3)Gal(b1-4)GlcNAc(b1-3)Gal(b1-4)GlcNAc(b1-3)Gal(b1-4)GlcNAc(b1-3)Gal(b1-4)GlcNAc(b1-2)Man(a1-3)[Gal(b1-4)GlcNAc(b1-3)Gal(b1-4)GlcNAc(b1-3)Gal(b1-4)GlcNAc(b1-3)Gal(b1-4)GlcNAc(b1-3)Gal(b1-4)GlcNAc(b1-3)Gal(b1-4)GlcNAc(b1-2)Man(a1-6)]Man(b1-4)GlcNAc(b1-4)GlcNAc
In short: as §1

[15] = biological target: Gal(b1-4)GlcNAc(b1-3)Gal(b1-4)GlcNAc(b1-3)GalNAc
In short: as §1

[16] = biological target: Gal(b1-4)GlcNAc(b1-3)Gal(b1-4)GlcNAc(b1-3)[Gal(b1-4)GlcNAc(b1-3)Gal(b1-4)GlcNAc(b1-6)]GalNAc
In short: as §1

[17] = biological target: Gal(b1-4)GlcNAc(b1-3)Gal(b1-4)GlcNAc(b1-6)[Gal(b1-3)]GalNAc
In short: as §1

[18] = biological target: Gal(b1-4)GlcNAc(b1-3)Gal(b1-4)[Fuc(a1-3)]GlcNAc(b1-3)Gal(b1-4)[Fuc(a1-3)]GlcNAc
In short: as §1

[19] = biological target: Gal(b1-4)GlcNAc(b1-3)GalNAc
In short: as §1

[20] = biological target: Gal(b1-4)GlcNAc(b1-3)[Fuc(a1-3)GlcNAc(b1-6)]Gal(b1-4)Glc
In short: as §1

[21] = biological target: Gal(b1-4)GlcNAc(b1-3)[Gal(b1-4)GlcNAc(b1-6)]Gal(b1-4)GlcNAc
In short: as §1

[22] = biological target: Gal(b1-4)GlcNAc(b1-3)[Gal(b1-4)GlcNAc(b1-6)]GalNAc
In short: as §1

[23] = biological target: Gal(b1-4)GlcNAc(b1-3)[GlcNAc(b1-6)]Gal(b1-4)GlcNAc
In short: as §1

[24] = biological target: Gal(b1-4)GlcNAc(b1-6)Gal(b1-4)GlcNAc
In short: as §1

[25] = biological target: Gal(b1-4)GlcNAc(b1-6)Gal(b1-4)GlcNAc(b1-6)GalNAc
In short: as §1

[26] = biological target: Gal(b1-4)GlcNAc(b1-6)GalNAc
In short: as §1

[27] = biological target: Gal(b1-4)GlcNAc(b1-6)[Gal(b1-3)]GalNAc
In short: as §1

[28] = biological target: Gal(b1-4)GlcNAc(b1-6)[Gal(b1-4)GlcNAc(b1-3)]GalNAc
In short: as §1

[29] = biological target: Gal(b1-4)GlcNAc6P
In short: as §1

[30] = biological target: Gal(b1-6)Gal
In short: as §1

[31] = biological target: Gal3S(b1-3)GalNAc
In short: as §1

[32] = biological target: Gal3S(b1-3)GlcNAc
In short: as §1

[33] = biological target: Gal3S(b1-3)[Fuc(a1-4)]GlcNAc
In short: as §1

[34] = biological target: Gal3S(b1-4)Glc
In short: as §1

[35] = biological target: Gal3S(b1-4)Glc6S
In short: as §1

[36] = biological target: Gal3S(b1-4)GlcNAc
In short: as §1

[37] = biological target: Gal3S(b1-4)GlcNAc6S
In short: as §1

[38] = biological target: Gal3S(b1-4)[Fuc(a1-3)]Glc
In short: as §1

[39] = biological target: Gal3S(b1-4)[Fuc(a1-3)]Glc6S
In short: as §1

[40] = biological target: Gal3S(b1-4)[Fuc(a1-3)]GlcNAc
In short: as §1

[41] = biological target: Gal3S(b1-4)[Fuc(a1-3)]GlcNAc6S
In short: as §1

[42] = biological target: Gal3S4S(b1-4)GlcNAc
In short: as §1

[43] = biological target: Gal3S6S(b1-4)GlcNAc
In short: as §1

[44] = biological target: Gal3S6S(b1-4)GlcNAc6S
In short: as §1

[45] = biological target: Gal4S(b1-4)GlcNAc
In short: as §1

B1: GNA (Galanthus nivalis), P30617 (protein)
chain: MAKASLLILAAIFLGVITPSCLSDNILYSGETLSTGEFLNYGSFVFIMQEDCNLVLYDVDKPIWATNTGGLSRSCFLSMQTDGNLVVYNPSNKPIWASNTGGQNGNYVCILQKDRNVVIYGTDRWATGTHTGLVGIPASPPSEKYPTAGKIKLVTAK
glycan array binding signal (z-score) [1]: 0.087 | glycan array binding signal (z-score) [2]: -0.093 | glycan array binding signal (z-score) [3]: -0.113 | glycan array binding signal (z-score) [4]: -0.163 | glycan array binding signal (z-score) [5]: 0.061 | glycan array binding signal (z-score) [6]: -0.039 | glycan array binding signal (z-score) [7]: -0.116 | glycan array binding signal (z-score) [8]: -0.076 | glycan array binding signal (z-score) [9]: -0.052 | glycan array binding signal (z-score) [10]: -0.122 | glycan array binding signal (z-score) [11]: -0.155 | glycan array binding signal (z-score) [12]: -0.106 | glycan array binding signal (z-score) [13]: -0.018 | glycan array binding signal (z-score) [14]: -0.001 | glycan array binding signal (z-score) [15]: -0.039 | glycan array binding signal (z-score) [16]: -0.06 | glycan array binding signal (z-score) [17]: -0.052 | glycan array binding signal (z-score) [18]: -0.249 | glycan array binding signal (z-score) [19]: -0.197 | glycan array binding signal (z-score) [20]: -0.161 | glycan array binding signal (z-score) [21]: -0.21 | glycan array binding signal (z-score) [22]: -0.206 | glycan array binding signal (z-score) [23]: -0.173 | glycan array binding signal (z-score) [24]: -0.108 | glycan array binding signal (z-score) [25]: 0.012 | glycan array binding signal (z-score) [26]: -0.162 | glycan array binding signal (z-score) [27]: -0.164 | glycan array binding signal (z-score) [28]: -0.158 | glycan array binding signal (z-score) [29]: -0.176 | glycan array binding signal (z-score) [30]: -0.149 | glycan array binding signal (z-score) [31]: -0.141 | glycan array binding signal (z-score) [32]: -0.112 | glycan array binding signal (z-score) [33]: -0.11 | glycan array binding signal (z-score) [34]: -0.156 | glycan array binding signal (z-score) [35]: -0.075 | glycan array binding signal (z-score) [36]: -0.147 | glycan array binding signal (z-score) [37]: 0.332 | glycan array binding signal (z-score) [38]: 0.166 | glycan array binding signal (z-score) [39]: -0.108 | glycan array binding signal (z-score) [40]: -0.145 | glycan array binding signal (z-score) [41]: -0.174 | glycan array binding signal (z-score) [42]: -0.065 | glycan array binding signal (z-score) [43]: -0.101 | glycan array binding signal (z-score) [44]: 0.015 | glycan array binding signal (z-score) [45]: -0.166
